Reference: ChEMBL document CHEMBL1201862, “PubChem BioAssay data set” (2004)
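Method: 48-hour compound exposure of cells in 96-well plates, five concentrations, linear interpolation of endpoints. GI50 marks 50% less growth.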 Active and inactive are the calls of the source. Rule as the data show it: active = GI50 up to about 1.1 µM and inactive = higher. Bridge positions count the residues as written; N and C are the ends. Square brackets hold non-standard residues; d marks the D form. Peptide text beside a SMILES is read from it. Aib = CC(C)(N)C(=O)O; βAla = NCCC(=O)O

Test system: NCI-H322M
Test: inhibition of tumour cell growth, NCI panel, 48 h

SMILES	GI50
C=C1C(=O)OC2CC1C(O)C/C(C)=C/CC/C(C)=C/C(O)CC2C (stereo unspecified)	inactive: 10.7 µM
COC(=O)c1cn(CCCCO)nn1	inactive: > 100 µM
CC(NNC(=O)c1ccc[n+]([BH2-]C#N)c1)c1ccccc1 (stereo unspecified)	inactive: > 100 µM
O=C(O)C1CCCN1Cc1ccc2c(c1)OCO2 (stereo unspecified)	inactive: > 100 µM
Cc1[nH]c(=O)[nH]c(=S)c1C(=O)NC(C)(CO)CO	inactive: > 100 µM
Cc1csc2nc(-c3ccc([N+](=O)[O-])cc3)c(/C=N/N=C(N)N)n12	inactive: 1.86 µM
CN(C)c1ccc(/C=C/C=c2/c3ccccc3n3c2cc(-c2ccccc2)[n+]3C)cc1	active: 0.312 µM
CO[C@]12C[C@@H](CNC(=O)c3cc(Br)c[nH]3)O[C@H]1NC(=O)N2	inactive: > 100 µM
COc1cc2c(cc1OCc1ccccc1)NC(=S)[C@@H]1CCCN1C2=S	inactive: > 100 µM
CN/C=C(\C(=O)c1ccc(OC)c(OC)c1)c1ccc(OC)cc1	inactive: 16.4 µM
COc1cccc(C2c3cc4c(cc3OC(N3CCOCC3)C2C)OCO4)c1O (stereo unspecified)	inactive: 9.27 µM
CC1(C)NC(=O)C(NC(=O)C(N)CC(=O)O)CCCCNC(=O)CCNC1=O (stereo unspecified) (H-DK[Aib][βAla]; lactam 2-C; configuration not given here)	inactive: > 100 µM
CCOC(=O)c1nc2ccc(C(F)(F)F)cc2[nH]c1=O	inactive: > 100 µM
CCOC(=O)c1[nH]c2nc(SC)nc(Nc3ccccc3Cl)c2c1N	inactive: 19.5 µM
Cc1cc(NCCCCCCCNc2cc(C)nc3cc([N+](=O)[O-])ccc23)c2ccc([N+](=O)[O-])cc2n1	inactive: 10.1 µM
COC(=O)c1ccccc1CC1Cc2ccc3c(c2C1=O)CCC3 (stereo unspecified)	inactive: > 100 µM
COc1ccc(N[C@@H]2c3cc4c(cc3C(c3cc(OC)c(O)c(OC)c3)[C@H]3C(=O)OCC32)OCO4)cc1OC (stereo partly specified)	inactive: > 34 µM
O=C(CC1(O)C(=O)Nc2ccc([N+](=O)[O-])cc21)c1ccc2ccccc2c1 (stereo unspecified)	inactive: > 100 µM
CCOC(=O)c1cc([N+](=O)[O-])c(Sc2ncnc3nc[nH]c23)c([N+](=O)[O-])c1	inactive: 5.93 µM
CC(C)(C)OC(=O)NCC(=O)NC1CC=CCC1NC(=O)CNC(=O)OC(C)(C)C (stereo unspecified)	inactive: > 100 µM
Cc1cccc2c(=O)c3cccc(CC(=O)O)c3oc12	inactive: > 100 µM
COc1ccc(/C=c2\c(=O)[nH]c3nc4ccccc4c(=O)n23)cc1	inactive: 74.8 µM
CCOC(=O)/C(=C/c1cccc(C#N)c1)N(CC)CC	inactive: > 100 µM
COc1cc2c(cc1O)c(O)cc1c3cc(OC)c(OC)cc3c[n+](C)c21	inactive: 39.4 µM

SMILES	GI50
CC(C)C1=C(O)C(=O)C2=C(C1=O)C(O)CC1C(C)(C)CCCC21C (stereo unspecified)	inactive: 5.37 µM
CC1(C)OCC(CO)(CO)CO1	inactive: > 100 µM
CCOC(=O)C(O)(NC(=O)c1ccc(F)cc1)C(F)(F)F (stereo unspecified)	inactive: > 100 µM
CCCn1c(CN(Cc2nc3ccccc3n2CCC)Cc2nc3ccccc3n2CCC)nc2ccccc21	active: 0.889 µM
O=c1[nH]c(=O)n(C/C=C/CBr)nc1Br	inactive: 16.4 µM
CNC(=S)/N=c1/sc(NC)nc2sc3c(c12)CCCC3	inactive: > 100 µM
CC(=O)Nc1ccc(Nc2cc(=O)n(C)c(=O)[nH]2)cc1	inactive: > 100 µM
CC(O)=C1C(=O)CCC1=O	inactive: > 100 µM
COC(=O)c1ccc(Cc2ccc(C(=O)OC)o2)o1	inactive: > 378 µM
O=Cc1ccc(-c2cccs2)s1	inactive: > 100 µM
COc1ccccc1Cn1[nH]c(=O)c2cc([N+](=O)[O-])ccc21	inactive: > 100 µM
COc1cc(C2C(C#N)=C(N)OC3=C2CCS(=O)(=O)c2ccc(C)cc23)cc(OC)c1OC (stereo unspecified)	inactive: > 100 µM
CN(C)c1n/c(=N/c2ccc3ccccc3c2)ss1	inactive: 19.4 µM
CC1COC(C)(C)P(=O)(c2ccccc2)C1 (stereo unspecified)	inactive: > 100 µM
O=C1/C(=C/c2cccs2)NC(=S)N1CN1CCCC(CO)C1 (stereo unspecified)	inactive: > 100 µM
COc1cccc(NC(=O)/C(CS(=O)(=O)CCC(C(C)=O)C(C)=O)=N/NC(C)(C)C)c1	inactive: > 100 µM
C=C1CC2(C[C@@H](c3ccccc3)O[C@@H](c3ccccc3)C2)OC1=O (stereo partly specified)	inactive: 8.28 µM
O=Nc1ccc(O)c2ncccc12	inactive: 13.2 µM
COC(=O)CC1(CNC(=O)OCc2ccccc2)OCCO1	inactive: > 100 µM
COC(=O)C1C(C)N1C (stereo unspecified)	inactive: > 100 µM
COc1ccc(CC(=O)N2CCC3(C)CC(=O)CC=C23)cc1OC (stereo unspecified)	inactive: > 100 µM
Oc1ccc([I+]c2ccccc2)cc1O	inactive: 22.4 µM
Cc1nc2cc([N+](=O)[O-])ccc2c(NCCCN(C)C)c1C	inactive: 5.62 µM
CC1(C)O[C@@H](CBr)C[C@H](C[C@H]2C[C@@H](O)C[C@@H](CCOCc3ccccc3)O2)O1	inactive: 18.1 µM

SMILES	GI50
CN(C)CCNC(=O)c1cccc2cc3cc(O)ccc3nc12	inactive: 1.73 µM
[O-][S+](Cc1cc2c(cc1Br)OCO2)c1ccccc1 (stereo unspecified)	inactive: > 100 µM
COC(=O)C(=O)C(C(=O)OC)C(=O)C(=O)Nc1cc(Cl)c(Cl)cc1Cl (stereo unspecified)	inactive: > 100 µM
Oc1nc2nnc(COc3ccc(Cl)cc3Cl)n2nc1Cc1ccccc1	inactive: 54.8 µM
COc1ccc(-n2c(N)c(C#N)c(C#N)c2-c2ccco2)cc1	inactive: > 100 µM
O=C1/C(=C/c2ccc(O)cc2)CCc2ccc([N+](=O)[O-])cc21	inactive: > 100 µM
COc1cc2c3c(c1)c1cc(OC)c(OC)cc1c[n+]3CC2	inactive: 7.03 µM
COC(=O)c1cc(S(=O)(=O)NC2=NNC(C)CN2)c(S)cc1Cl (stereo unspecified)	inactive: 43.1 µM
O=C1c2ccccc2C(=O)c2c(O)c(NCCCNCCO)cc(O)c21	inactive: 6.7 µM
O=C(NNC(c1ccccc1)C(F)(F)F)c1ccncc1 (stereo unspecified)	inactive: > 100 µM
CNC1C(O)C(OC2C(N)CC(N)C(OC3OC(CN)=CCC3N)C2O)OCC1(C)O (stereo unspecified)	inactive: > 100 µM
CC(N)(CC(O)(C(F)(F)Cl)C(F)(F)Cl)C(=O)O (stereo unspecified)	inactive: > 10 µM
COc1ccc([C@H]2CC(=O)C[C@H](c3ccc(OC)cc3)C23C(=O)c2ccccc2C3=O)cc1	inactive: 6.93 µM
Cc1ccc(C(=O)Nc2ccc(CP(=O)(O)O)cc2)cc1NC(=O)c1cccc(N)c1	inactive: > 100 µM
C=CCSS/C=C/C[S+]([O-])CC=C (stereo unspecified) [AJOENE]	inactive: > 100 µM
OCCN(CCO)c1ccc2c(-c3ccccc3)cc(N(CCO)CCO)nc2n1	inactive: > 100 µM
COC(=O)c1ccccc1OCc1cc(=O)oc2ccc(C)cc12	inactive: > 100 µM
COc1ccc(-c2nc(-c3cnccn3)n(COCCO)n2)cc1	inactive: > 100 µM
Cc1oc2ccccc2c(=O)c1Cn1nnc2ccccc21	inactive: > 100 µM
O=c1[nH]c(NCc2cccnc2)nc2[nH]cnc12	inactive: > 100 µM
CN(C)CCNc1ccc2c(=O)n(CCN(C)C)c(=O)n3c4ccccc4c(=O)c1c23	active: 0.0594 µM
Cc1ccc([N+](=O)[O-])c2c(NCC(O)CO)ccnc12 (stereo unspecified)	inactive: 24.5 µM
COc1ccc2c(c1)CC1c3c(ccc(OC)c3O)CC2N1C (stereo unspecified)	inactive: 45.3 µM
N#Cc1ccccc1NC(=O)c1ccccc1	inactive: > 100 µM

SMILES	GI50
NCCS(=O)(=O)O [TAURINE]	inactive: > 100 µM
NNC1=Nc2ccc(Cl)cc2C(=S)N2CSCC12 (stereo unspecified)	inactive: > 100 µM
CC(=O)c1[nH]c(NC(C)C)c(C(=S)Nc2ccccc2)c1N	inactive: 51.4 µM
CCC(O)C1Cc2c(C)cc3c(c2O1)C(=O)c1ccccc1C3=O (stereo unspecified)	inactive: 42.2 µM
CC1=C2C(=O)c3ccccc3C(=O)[C@H]2C[C@@H](N2CCCC2=O)O1	inactive: > 100 µM
CN(C)c1ccc2nc3c(ccc4ccccc43)[o+]c2c1	inactive: 15.8 µM
CCCCCCCCCCCC[C@@H](O)[C@H]1CC[C@H]([C@H]2CC[C@H]([C@H](O)CC[C@H](O)CCCCCCCC3=C[C@H](C)OC3=O)O2)O1	inactive: 2.23 µM
N#Cc1c(OCCF)c2ccccc2n2c1nc1ccccc12	inactive: > 100 µM
O=C(CC(=O)c1cccc2ccccc12)C(=O)NC1C2CC3CC(C2)CC1C3 (stereo unspecified)	inactive: > 100 µM
CCC(C(=O)C(=O)C(CC)P1(=O)OC(C)(C)CN1C(C)(C)C)P1(=O)OC(C)(C)CN1C(C)(C)C (stereo unspecified)	inactive: > 100 µM
O=C(NCCCNCCCCNCCCNC(=O)C(F)(F)F)C(F)(F)F	inactive: > 100 µM
CCc1nc(N)nc(N)c1-c1ccc(Cl)c(/N=C/N(C)C)c1	inactive: 56.5 µM
N=c1oc2c(Br)cc(Br)cc2cc1C(=O)Nc1ccccn1	inactive: 77.6 µM
COC1(CC[C@H](C)COC2OC(CO)C(O)C(O)C2O)O[C@H]2C[C@H]3[C@@H]4CC=C5C[C@@H](OC6OC(CO)C(OC7OC(C)C(O)C(O)C7O)C(O)C6OC6OC(C)C(O)C(O)C6O)CC[C@]5(C)[C@H]4CC[C@]3(C)[C@H]2[C@@H]1C (stereo partly specified)	inactive: 3.59 µM
O=C1OCc2c1cc1ccc(O)c(OC3OC(CO)C(O)C(O)C3O)c1c2-c1ccc2c(c1)OCO2 (stereo unspecified)	inactive: > 100 µM
O=C(O)CCC1(Br)CCCCC(Br)C1=O (stereo unspecified)	inactive: > 100 µM
O=[N+]([O-])c1ccccc1S(=O)(=O)c1cc(O)cc2c1NCCC2	inactive: 17 µM
C/C(=C/c1c(C)[nH]c(=O)[nH]c1=O)C(=O)O	inactive: > 1370 µM
CC(C(=O)Oc1ccc2ccccc2c1-c1c(O)ccc2ccccc12)c1ccccc1 (stereo unspecified)	inactive: 15.7 µM
N#Cc1ccc(-c2nc3c(N)ncnc3o2)cc1	inactive: > 100 µM
Cc1nc(N)c(N2CCN(C#N)CC2)c(O)n1	inactive: > 100 µM
O=C1CCC(=O)N1Sc1ccccc1	inactive: > 100 µM
CCCC(=O)Nc1cc(C(=O)N2C[C@H]3C[C@@]34C2=CC(=O)c2[nH]cc(C)c24)n(COC)c1	active: 0.652 µM
CNC(=O)/C=C/C1=CN2C(=O)c3ccc(C)c(O)c3NC(OC)C2C1 (stereo unspecified)	active: < 0.0177 µM
